Reference: PubChem BioAssay AID686970 (National Center for Advancing Translational Sciences (NCATS), 2013)
Values joined by “and” are separate entries in the source; they are usually repeats but may differ in a detail not shown here. Identical values can stand only once. Hit rate of the full screen: of about 360,000 compounds, about 6,000 (1.7%) were called active. The inconclusive results got no clear call from the source; some entries with a clear call stand among them for comparison. The call rests on the fitted dose curve; in most records, active means well fitted cell-killing curve with a large enough effect; inconclusive means small, poorly fitted or top-dose-only effect, or effect the other way; inactive means flat fitted curve, though single readings scatter. Potencies of inconclusive entries are doubtful fits and often do not repeat.

assay: qHTS for induction of synthetic lethality in tumor cells producing 2HG: qHTS for the HT-1080-NT fibrosarcoma cell line; conditions: HT-1080-NT fibrosarcoma viability, CellTiter-Glo ATP luminescence, 48 h; activity, negative = less viability: at 46.1 µM (top of the series) unless noted;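 further: NT is the 2HG producing partner of a matched IDH1 knockdown line; nearly all actives have a fitted effect of over 55% in size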;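 on activity, negative = less viability: 0% = DMSO-treated cells and -100% = media-only wells without cells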
Outline: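 Luminescent CellTiter-Glo readout after 48 hours of compound exposure at 37 degrees C defined viability of HT-1080-NT cells. Activity was normalized to DMSO wells and cell-free media wells; concentration-response curves were fitted and assigned curve classes.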
Potency means the concentration at half of the fitted maximal effect; tags describe the fitted curve by direction and shape.

Row | SMILES | Potency | activity, negative = less viability
1 | Cc1ncoc1C(=O)N1CCc2c([nH]c3ccccc23)C1c1ccccc1F (stereo unspecified) | inconclusive: 20.6 µM [cytotoxic, single point] | –
2 | OC[C@@H]1CN(Cc2ccccc2)C[C@H](n2cnc3c(N4CCOCC4)ncnc32)O1 | inactive | –
3 | O=C(O)Cc1sc(Nc2cccc3ccccc23)nc1-c1ccc(F)cc1 | inconclusive: 16.4 µM [cytotoxic, single point] | –
4 | COc1ccc(CNC(=O)C2(C)Cc3c(-c4ccc5c(c4)OCO5)ccnc3O2)cc1OC (stereo unspecified) | inactive | –
5 | Cc1ccc(NCC(=O)N/N=C/c2ccc(OC(=O)c3ccco3)cc2)cc1 | inconclusive: 6.31 µM [cytotoxic, partial curve] | –
6 | Cc1ccc(OCC(=O)Nc2cccc(-c3nnc(-c4ccccc4)o3)c2)c(C)c1 | inconclusive: 29.1 µM [cytotoxic, single point] | –
7 | O=C(CSc1nc2cc(Cl)ccc2s1)N1CCN(C(=O)c2ccco2)CC1 | inactive | –
8 | Nc1[nH]c(C(=O)c2ccccc2)c(-c2c(F)cccc2F)c1C(=O)c1ccc(Cl)c(Cl)c1 | inconclusive: 29.1 µM [cytotoxic, single point] | –
9 | Cc1ccc2sc(N(CCCN(C)C)C(=O)CN3C(=O)c4ccccc4C3=O)nc2c1C | active: 16.4 µM | –
10 | O=C(N/N=C\c1ccc(Cl)s1)c1cccs1 | inconclusive: 35.5 µM [cytotoxic, single point] | –
11 | O=C1C(=O)c2cccnc2-c2ncccc21 | active: 1.03 µM | –
12 | O=C(Nc1ccccc1F)Nc1cccnc1Cl | inactive | –
13 | Nc1ccn([C@@H]2O[C@H](C(=O)N3CCSC3)[C@@H](O)[C@H]2O)c(=O)n1 | inconclusive: 23.1 µM [rising, partial curve, poor fit] | –
14 | O=C(Nc1ccc(S(=O)(=O)N2CCCC2)cc1)c1cccnc1Cl | inactive | –
15 | c1ccc(CCn2c(C3CC3)nc3ccccc32)cc1 | inconclusive: 35.5 µM [cytotoxic, single point] | –
16 | CC(=O)CC(=O)Nc1ncccn1 | inactive | –
17 | COc1ccc(CNCCC(c2ccc(OC)cc2)c2ccccc2OC)cc1 (stereo unspecified) | active: 14.6 µM | –
18 | Cc1ccc(C(=O)NN(C)c2nc3ccccc3nc2C(F)(F)F)cc1 | inconclusive: 6.51 µM [cytotoxic, full curve] | –
19 | COCCNc1nc(NCc2ccc(C(C)C)cc2)c2sccc2n1 | active: 13 µM | –
20 | S=C(Nc1ccccc1)Nc1nc2ccccc2n1CCOc1ccc(Cl)cc1 | inconclusive: 20.6 µM [cytotoxic, single point] | –
21 | COc1ccc(S(=O)(=O)Nc2ccc3c(c2)n(C)c(=O)n3C)cc1F | inconclusive: 29.1 µM [cytotoxic, single point] | –
22 | O=C(O)c1cc(S(=O)(=O)Nc2ccccc2Cc2ccccc2)ccc1Cl | inconclusive: 8.2 µM [rising, partial curve, poor fit] | –
23 | COc1ccccc1N(Cc1ccccc1)S(=O)(=O)c1cccc(C(=O)N2CCCCC2)c1 | inconclusive: 18.4 µM [cytotoxic, single point] | –
24 | CC[N+]1(C)CC2CCC(C)(C1)C2(C)C (stereo unspecified) | inactive | –

Row | SMILES | Potency | activity, negative = less viability
25 | CC(/C=C/c1ccccc1F)=N\NC(=O)c1ccc(Cl)cc1 | active: 4.61 µM | –
26 | O=C1CC(N2CCN(c3ccccn3)CC2)C(=O)N1c1ccc(F)cc1 (stereo unspecified) | inactive | –
27 | CCOc1cccc(CNc2ccc(O)cc2)c1OCc1ccccc1Cl | inconclusive: 29.1 µM [cytotoxic, single point] | –
28 | NNc1cc2c(nn1)CCN(C(=O)c1ccccc1)C2 | inconclusive: 29.1 µM [cytotoxic, single point] | –
29 | CCCc1nc2ccccc2c(=O)n1/N=C/c1c(C)[nH]n(-c2ccc(C)cc2)c1=O | active: 16.4 µM | –
30 | O=C(CNC(=O)c1ccc(Br)o1)Nc1cccc(-c2cnc3ccccc3n2)c1 | inconclusive: 29.1 µM [cytotoxic, single point] | –
31 | CC1CCC(C(C)C)C(OC(=O)C[n+]2cc(-c3ccc(Cl)cc3)n3c2CCC3)C1 (stereo unspecified) | inconclusive: 29.1 µM [cytotoxic, single point] | –
32 | CC(=O)Nc1ccc(NC(=O)CCc2nc3sc4c(c3c(=O)[nH]2)CCCC4)cc1 | inactive | –
33 | Cc1ccc(-c2[nH]ncc2C(=O)c2ccc(Br)cc2)c(O)c1 | inconclusive: 18.4 µM [cytotoxic, single point] | –
34 | O=C(N/N=C/c1cc([N+](=O)[O-])ccc1O)c1ccncc1 | inconclusive: 9.2 µM [cytotoxic, partial curve] | –
35 | CCN(CC)CCOC(=O)C(c1ccccc1)C1CCCCC1 (stereo unspecified) | inconclusive: 29.1 µM [cytotoxic, single point] | –
36 | CCCCn1c(-c2cccc(Br)c2)nc2cc3[nH]c(=O)c(C(C)C)nc3cc21 | inactive | –
37 | CCc1nnc2c(NCCc3ccc(OC)c(OC)c3)nc3ccccc3n12 | inconclusive: 16.4 µM [rising, partial curve, poor fit] | –
38 | CCN(Cc1ccc(OC)c(F)c1)C(=O)CCl | active: 18.4 µM | –
39 | O=C(/C=C1\NC2(CCCC2)Cc2ccccc21)C(=O)N/N=C/c1ccc(O)c(O)c1 | inconclusive: 29.1 µM [cytotoxic, single point] | –
40 | CCN1CCN(Cc2c(O)ccc3c2O/C(=C\C=C\c2ccccc2OC)C3=O)CC1 | inconclusive: 18.4 µM [cytotoxic, single point] | –
41 | O=c1c2c(nc(NCCO)n1CC1CCCCC1)-c1ccccc1CC21CCCC1 | inconclusive: 20.6 µM [cytotoxic, single point] | –
42 | Cc1ccc(N/C(N)=N/c2nc(CSc3nnc(N)s3)cc(=O)[nH]2)cc1 | inactive | –
43 | COCCNC(=O)c1ccc2c(c1)ncn2-c1ccc(F)c(F)c1 | inconclusive: 3.26 µM [rising, full curve, poor fit] | –
44 | Cc1ccc2oc(=O)ccc2c1 | inconclusive: 0.92 µM [rising, full curve] | –
45 | CC[C@]12c3[nH]c4ccc(Cl)cc4c3CCN1C(=O)[C@@H](CC(=O)NCc1cccc(C(F)(F)F)c1)C[C@@H]2C(=O)N1CCN(C(=O)c2ccco2)CC1 | inconclusive: 18.4 µM [cytotoxic, partial curve] | –
46 | CCC(CC)C(=O)N(CCc1ccc(OC)cc1)Cc1nc2ccccc2c(=O)[nH]1 | inconclusive: 35.5 µM [cytotoxic, single point] | –
47 | CCC1CCCCN1S(=O)(=O)c1ccc(NC(=O)c2nc(S(C)(=O)=O)ncc2Cl)cc1 (stereo unspecified) | active: 4.61 µM | –
48 | CCN(CC)CCCNC(=O)c1cc(-c2ccccc2)c(N2CCCCC2)s1 | inconclusive: 5.8 µM [cytotoxic, full curve] | –

Row | SMILES | Potency | activity, negative = less viability
49 | Nc1nc(Cl)cc(Sc2ccc3ccccc3c2)n1 | inconclusive: 20.6 µM [cytotoxic, single point] | –
50 | Cc1ccc(NC(=S)NC(=O)/C=C/c2ccc(Cl)cc2)cc1 | inconclusive: 11.6 µM [rising, partial curve] | –
51 | O=C(CSc1ccc(-c2cccnc2)nn1)Nc1ccc(F)c(F)c1 | inconclusive: 23.1 µM [cytotoxic, single point] | –
52 | COc1cccc(CN(C)C(=O)CCN=C2NS(=O)(=O)c3ccccc32)c1 | – | inactive: 5.81% [at 9.24 µM]
53 | Cc1cc(C)n2c(SCc3ccc(Cl)cc3Cl)nnc2n1 | inconclusive: 29.1 µM [cytotoxic, single point] | –
54 | C=CCNC(=S)Nc1ccc(C)c(S(=O)(=O)N2CCCCC2)c1 | inactive | –
55 | Cc1ccc2ccc3ccc(C)nc3c2n1 | active: 0.0058 µM | –
56 | CCOc1cc(C=C(C(=O)OC)C(=O)OC)ccc1OCc1ccc([N+](=O)[O-])cc1 | active: 5.8 µM | –
57 | O=C1C=C(Nc2ccccc2)c2ccccc2C1=O | inconclusive: 7.31 µM [cytotoxic, partial curve] | –
58 | O=C(C1CCN(c2ncnc3c2nc2n3CCCCC2)CC1)N1CCN(c2ccccc2F)CC1 | inconclusive: 20.6 µM [cytotoxic, single point] | –
59 | COc1ccc(C(=O)NCCN(C)C)c2nc3ccccc3cc12 | inconclusive: 20.6 µM [cytotoxic, partial curve] | –
60 | COc1ccccc1NC(=O)CN1C(=O)CC(C)S(=O)(=O)c2ccccc21 (stereo unspecified) | inactive | –
61 | Cc1ccn2c(NCc3ccccc3)c(-c3cccc(SC4CCCCC4)c3)nc2c1 | inconclusive: 29.1 µM [cytotoxic, single point] and inconclusive: 20.6 µM [cytotoxic, single point] | –
62 | CN(Cc1ccccc1)C(=O)c1csc([C@H]2C[C@H](O)[C@@H](CO)O2)n1 | inactive | –
63 | CCOc1ccccc1N | inconclusive: 5.17 µM [rising, partial curve] | –
64 | CCCCC1(C)Nc2ccccc2-c2nc3ccccc3n21 (stereo unspecified) | inactive | –
65 | COc1ccc2c(c1)C=C(CN1CCN(Cc3ccccc3C)C(CCO)C1)CO2 (stereo unspecified) | inconclusive: 29.1 µM [cytotoxic, single point] | –
66 | O=C1Nc2ccccc2-n2nnnc2C1N1CCN(c2ccc(C(F)(F)F)cc2[N+](=O)[O-])CC1 (stereo unspecified) | inconclusive: 20.6 µM [cytotoxic, single point] | –
67 | CN(Cc1ccccn1)C(=O)c1cc(COc2ccc(F)c(F)c2)on1 | inactive | –
68 | O=S(=O)(c1cccs1)N1CCN(S(=O)(=O)c2cccs2)CC1 | inconclusive: 2.91 µM [cytotoxic, single point] | –
69 | COc1ccc(-c2nc3c(C(=O)NCCN(C)C)cccc3c3ccccc23)cc1 | inconclusive: 29.1 µM [cytotoxic, single point] | –
70 | CO/N=C/c1c(-c2ccc(Cl)cc2)nc2cc(C)ccn12 | inactive | –
71 | COc1ccc(-n2c(-c3ccc(Cl)cc3)c[n+]3c2CCCCC3)cc1 | inconclusive: 20.6 µM [cytotoxic, single point] | –
